# Data from publication PMC10831071, “Reaction hijacking inhibition of Plasmodium falciparum asparagine tRNA synthetase” (Nature Communications, 2024).
# “And” between values parts separate entries of the source, which are not always exact repeats. Equal values may be shown once. Read-outs that look alike come from different tables or passages of the source.
# Tests used:
# PfAsnRS^R487S = target: T1, PfAsnRS^R487S (Plasmodium falciparum, UniProt O96198, R487S); experiment: biochemical
# T1 sequence (O96198 1-610 R487S): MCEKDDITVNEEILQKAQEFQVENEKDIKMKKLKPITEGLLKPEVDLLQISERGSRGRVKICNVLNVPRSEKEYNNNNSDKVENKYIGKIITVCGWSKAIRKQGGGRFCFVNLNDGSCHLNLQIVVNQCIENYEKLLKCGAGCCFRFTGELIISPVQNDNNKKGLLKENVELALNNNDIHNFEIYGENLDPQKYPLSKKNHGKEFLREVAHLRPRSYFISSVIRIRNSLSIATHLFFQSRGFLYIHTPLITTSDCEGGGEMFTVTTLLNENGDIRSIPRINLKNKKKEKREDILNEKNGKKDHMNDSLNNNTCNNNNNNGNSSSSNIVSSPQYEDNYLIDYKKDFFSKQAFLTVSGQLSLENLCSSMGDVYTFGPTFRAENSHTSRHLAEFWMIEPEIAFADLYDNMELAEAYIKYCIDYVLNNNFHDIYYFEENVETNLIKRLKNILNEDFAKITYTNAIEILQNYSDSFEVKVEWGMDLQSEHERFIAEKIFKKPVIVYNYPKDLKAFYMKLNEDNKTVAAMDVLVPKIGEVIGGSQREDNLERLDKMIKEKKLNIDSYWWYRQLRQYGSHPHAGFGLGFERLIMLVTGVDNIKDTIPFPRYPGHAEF
# [1] = system: P. falciparum PfAsnRS^R487S mutant line (Dd2); experiment: 72 h sensitivity of CRISPR-edited PfAsnRS R487S line; format: cell-based, Plasmodium falciparum; conditions: for IC50: Plasmodium falciparum
# Source text: Two guide RNAs were designed using Benchling (benchling.com). The gRNA1 (5’-[…]-3’) and gRNA2 ([…]) were located near the mutation site. Both gRNAs and their complementary sequences were synthesized as primers by IDT. Each gRNA was cloned into the pDC2-coCas9-gRNA plasmid. A donor template of 780 bp, encompassing coding nucleotide sequences 1045-1824, was synthesized (Thermo Fisher Scientific) and assembled at the AatII and EcoRI sites using NEBuilder HiFi DNA Assembly. […] Transfections were performed on ring-stage Dd2 parasites using a BioRad Gene Pulser II as described, with 5 nM WR99210 drug pressure applied for 8 days. Edited clones were isolated by limiting dilution and validated by Sanger sequencing.
smiles,measurement,setting,value
NC(=O)C[C@H](N)C(=O)NS(=O)(=O)c1cccc(-c2cc3ncnc(N)c3s2)c1 [Asn-OSM-S-106],ATP consumption,"PfAsnRS^R487S; 0.005 μM Asn-OSM-S-106, PfAsnRSR487S, 0 μM = 100 (Fig 3F), 0.005 µM",101.371 and 90.5979 and 103.201
same,activity at 0.005 µM,"PfAsnRS^R487S; read-out: ATP consumption, 0.005 μM Asn-OSM-S-106, PfAsnRSR487S, 0 μM = 100 (Fig 3F)",95.3%
Nc1ncnc2cc(-c3cccc(S(N)(=O)=O)c3)sc12 [OSM-S-106],IC50,PfAsnRS^R487S,> 500000 nM
same,ATP consumption,"PfAsnRS^R487S; 0.1 μM OSM-S-106, PfAsnRSR487S + tRNA, 0 μM = 100, 0.1 µM",104.503 and 121.093
same,ATP consumption,"PfAsnRS^R487S; 0.1 μM OSM-S-106, PfAsnRSR487S - tRNA, 0 μM = 100, 0.1 µM",99.7961 and 126.786 and 109.576
same,ATP consumption,"PfAsnRS^R487S; 1 μM OSM-S-106, PfAsnRSR487S + tRNA, 0 μM = 100, 1 µM",98.1499 and 122.134
same,ATP consumption,"PfAsnRS^R487S; 1 μM OSM-S-106, PfAsnRSR487S - tRNA, 0 μM = 100, 1 µM",97.0073 and 108.474
same,ATP consumption,"PfAsnRS^R487S; 5 μM OSM-S-106, PfAsnRSR487S + tRNA, 0 μM = 100, 5 µM",72.6057 and 105.524
same,ATP consumption,"PfAsnRS^R487S; 5 μM OSM-S-106, PfAsnRSR487S - tRNA, 0 μM = 100, 5 µM",99.0484 and 82.6223 and 109.414
same,ATP consumption,"PfAsnRS^R487S; 10 μM OSM-S-106, PfAsnRSR487S + tRNA, 0 μM = 100, 10 µM",72.3365 and 96.7874
same,ATP consumption,"PfAsnRS^R487S; 10 μM OSM-S-106, PfAsnRSR487S - tRNA, 0 μM = 100, 10 µM",109.074 and 99.9339 and 120.869
same,ATP consumption,"PfAsnRS^R487S; 25 μM OSM-S-106, PfAsnRSR487S + tRNA, 0 μM = 100, 25 µM",51.6084 and 69.971
same,ATP consumption,"PfAsnRS^R487S; 25 μM OSM-S-106, PfAsnRSR487S - tRNA, 0 μM = 100, 25 µM",95.4034 and 95.4106
same,ATP consumption,"PfAsnRS^R487S; 100 μM OSM-S-106, PfAsnRSR487S + tRNA, 0 μM = 100, 100 µM",22.4032
same,ATP consumption,"PfAsnRS^R487S; 100 μM OSM-S-106, PfAsnRSR487S - tRNA, 0 μM = 100, 100 µM",118.999 and 92.1296 and 93.7483
same,activity at 1 µM,"PfAsnRS^R487S; read-out: ATP consumption, 1 μM OSM-S-106, PfAsnRSR487S - tRNA, 0 μM = 100",92.7%
same,activity at 25 µM,"PfAsnRS^R487S; read-out: ATP consumption, 25 μM OSM-S-106, PfAsnRSR487S - tRNA, 0 μM = 100",109%
same,activity at 200 µM,"PfAsnRS^R487S; read-out: ATP consumption, 200 μM OSM-S-106, PfAsnRSR487S - tRNA, 0 μM = 100",105%
same,activity at 500 µM,"PfAsnRS^R487S; read-out: ATP consumption, 500 μM OSM-S-106, PfAsnRSR487S - tRNA, 0 μM = 100",110%
same,IC50,"PfAsnRS^R487S; read-out: IC50, ATP consumption, plus E. coli tRNA, 0.5 μM enzyme, 37 °C, […] (Fig. 3B)",26000 nM
same,decreased sensitivity of PfAsnRS^R487S line vs Dd2 parent,[1]; 72 h,2.3 fold
same,IC50,"[1]; DD2, PfAsnRSR487S mutant line, individual experiments",156 nM
same,IC50,"[1]; DD2, PfAsnRSR487S mutant lines, mean ± S.D., five experiments",165 nM
